# Experimental data reported in the supplement of paper PMC10037445.
# The full ranking holds about 2,900 compounds; the median of “IRF Lucia reporter activity, fold change vs agonist alone” is about 0.9, and the highest 2% start at about 2.8. Some of the results follow.
# What was measured:
# RAW-Dual [1] = test: IRF Lucia reporter activity, fold change vs agonist alone; cytotoxicity flag (confluency mask): not cytotoxic; higher = enhanced IRF activity
# Outline: (§1)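 Cytotoxic wells were those whose IncuCyte confluency was below 70% of agonist controls in both mask sets. The cells were RAW-Dual macrophages at 50,000 cells/well in DMEM on 384-well plates, dosed with 50 nL of library stock by pin tool, stimulated with a PRR agonist 1 h later, and kept at 37 °C, 5% CO2 for 20 hours. IRF and NF-κB reporter activity, as fold change over agonist-alone wells, came from supernatant read by QuantiLuc luminescence and QuantiBlue absorbance, respectively.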
# RAW-Dual [2] = test: IRF Lucia reporter activity, fold change vs agonist alone; higher = enhanced IRF activity; details: library stock concentration (final ~1000-fold dilution): 10 mM, agonist: MPLA (TLR4) […]
# Outline: as §1
# RAW-Dual [3] = test: IRF Lucia reporter activity, fold change vs agonist alone; cytotoxicity flag (confluency mask): cytotoxic (confluency <70% of control); higher = enhanced IRF activity
# Outline: as §1
# [4] = agonist: 3'3'-cGAMP (STING) 10 ug/mL
# [5] = cytotoxicity flag (confluency mask): not cytotoxic
structure (smiles),measurement,setting,value
NC(=O)CCCSc1nc(N)nc(-c2c(Cl)cc3c4c(cccc24)COC3)n1 (library stock concentration (final ~1000-fold dilution): 10 mM),IRF Lucia reporter activity,RAW-Dual [1]; [4],0.88
same,IRF Lucia reporter activity,RAW-Dual [1]; agonist: LPS (TLR4) 0.1 ug/mL,1.26
NC(=O)CCCSc1nc(N)nc(-c2c(Cl)cc3c4c(cccc24)COC3)n1,IRF Lucia reporter activity,RAW-Dual [2]; [5],0.866
COC(=O)NC(C(=O)N1CC2(CC2)CC1c1ncc(-c2ccc3c(c2)C(F)(F)c2cc(-c4ccc5nc(C6C7CCC(C7)N6C(=O)C(NC(=O)OC)C(C)C)[nH]c5c4)ccc2-3)[nH]1)C(C)C (centres undefined) (library stock concentration (final ~1000-fold dilution): 10 mM),IRF Lucia reporter activity,RAW-Dual [1]; [4],0.913
same,IRF Lucia reporter activity,RAW-Dual [1]; agonist: LPS (TLR4) 0.1 ug/mL,1.23
COC(=O)NC(C(=O)N1CC2(CC2)CC1c1ncc(-c2ccc3c(c2)C(F)(F)c2cc(-c4ccc5nc(C6C7CCC(C7)N6C(=O)C(NC(=O)OC)C(C)C)[nH]c5c4)ccc2-3)[nH]1)C(C)C (centres undefined),IRF Lucia reporter activity,RAW-Dual [2]; [5],0.979
CN(C)CC(=O)Nc1ccc2[nH]c(=O)c3ccccc3c2c1.Cl,IRF Lucia reporter activity,RAW-Dual [2]; [5],1.03
CN(C)CC(=O)Nc1ccc2[nH]c(=O)c3ccccc3c2c1.Cl (library stock concentration (final ~1000-fold dilution): 10 mM),IRF Lucia reporter activity,RAW-Dual [1]; [4],0.854
same,IRF Lucia reporter activity,RAW-Dual [1]; agonist: LPS (TLR4) 0.1 ug/mL,0.837
CN(C)CCC(CSc1ccccc1)Nc1ccc(S(=O)(=O)NC(=O)c2ccc(N3CCN(Cc4ccccc4-c4ccc(Cl)cc4)CC3)cc2)cc1[N+](=O)[O-] (centres undefined) (library stock concentration (final ~1000-fold dilution): 10 mM),IRF Lucia reporter activity,RAW-Dual [1]; [4],0.461
same,IRF Lucia reporter activity,RAW-Dual [1]; agonist: LPS (TLR4) 0.1 ug/mL,0.236
CN(C)CCC(CSc1ccccc1)Nc1ccc(S(=O)(=O)NC(=O)c2ccc(N3CCN(Cc4ccccc4-c4ccc(Cl)cc4)CC3)cc2)cc1[N+](=O)[O-] (centres undefined),IRF Lucia reporter activity,RAW-Dual [2]; [5],0.663
CS(=O)c1ccc(-c2nc(-c3ccc(F)cc3)c(-c3ccncc3)[nH]2)cc1 (centres undefined),IRF Lucia reporter activity,RAW-Dual [2]; [5],1
CS(=O)c1ccc(-c2nc(-c3ccc(F)cc3)c(-c3ccncc3)[nH]2)cc1 (centres undefined) (library stock concentration (final ~1000-fold dilution): 10 mM),IRF Lucia reporter activity,RAW-Dual [1]; [4],0.28
same,IRF Lucia reporter activity,RAW-Dual [1]; agonist: LPS (TLR4) 0.1 ug/mL,1.12
Cc1c(Cn2c(C)nc3c(C(=O)O)cc(N4CCOCC4)cc32)cccc1C(F)(F)F (library stock concentration (final ~1000-fold dilution): 10 mM),IRF Lucia reporter activity,RAW-Dual [1]; [4],1.19
same,IRF Lucia reporter activity,RAW-Dual [1]; agonist: LPS (TLR4) 0.1 ug/mL,1.22
O=C(NCc1ccc(Oc2ccccc2)cc1)c1nc(-c2cc(Br)c(O)c(Br)c2)no1 (library stock concentration (final ~1000-fold dilution): 10 mM),IRF Lucia reporter activity,RAW-Dual [1]; [4],1.16
same,IRF Lucia reporter activity,RAW-Dual [1]; agonist: LPS (TLR4) 0.1 ug/mL,1.08
O=C(NCc1ccc(Oc2ccccc2)cc1)c1nc(-c2cc(Br)c(O)c(Br)c2)no1,IRF Lucia reporter activity,RAW-Dual [2]; [5],1.06
Cn1c(=O)c2c(ncn2CC(O)CO)n(C)c1=O (centres undefined),IRF Lucia reporter activity,RAW-Dual [2]; [5],0.463
Cn1c(=O)c2c(ncn2CC(O)CO)n(C)c1=O (centres undefined) (library stock concentration (final ~1000-fold dilution): 10 mM),IRF Lucia reporter activity,RAW-Dual [1]; [4],0.43
same,IRF Lucia reporter activity,RAW-Dual [1]; agonist: LPS (TLR4) 0.1 ug/mL,0.948
Nc1nccs1 (library stock concentration (final ~1000-fold dilution): 10 mM),IRF Lucia reporter activity,RAW-Dual [1]; [4],1.1
same,IRF Lucia reporter activity,RAW-Dual [1]; agonist: LPS (TLR4) 0.1 ug/mL,1.06
Nc1nccs1,IRF Lucia reporter activity,RAW-Dual [2]; [5],1.11
O=S(=O)(NC1CCNCC1)c1cc(S(=O)(=O)c2ccccc2)ccc1C(F)(F)F,IRF Lucia reporter activity,RAW-Dual [2]; [5],1.04
O=S(=O)(NC1CCNCC1)c1cc(S(=O)(=O)c2ccccc2)ccc1C(F)(F)F (library stock concentration (final ~1000-fold dilution): 10 mM),IRF Lucia reporter activity,RAW-Dual [1]; [4],0.792
same,IRF Lucia reporter activity,RAW-Dual [1]; agonist: LPS (TLR4) 0.1 ug/mL,1.05
NC(=O)c1cccnc1,IRF Lucia reporter activity,RAW-Dual [2]; [5],0.986
NC(=O)c1cccnc1 (library stock concentration (final ~1000-fold dilution): 10 mM),IRF Lucia reporter activity,RAW-Dual [1]; [4],1.01
same,IRF Lucia reporter activity,RAW-Dual [1]; agonist: LPS (TLR4) 0.1 ug/mL,0.983
O=C(/C=C/c1ccccc1)NC(NC(=S)Nc1ccc(Cl)cc1)C(Cl)(Cl)Cl (centres undefined),IRF Lucia reporter activity,RAW-Dual [2]; cytotoxicity flag (confluency mask): cytotoxic (confluency <70% of control),1.34
O=C(/C=C/c1ccccc1)NC(NC(=S)Nc1ccc(Cl)cc1)C(Cl)(Cl)Cl (centres undefined) (library stock concentration (final ~1000-fold dilution): 10 mM),IRF Lucia reporter activity,RAW-Dual [3]; [4],0.341
same,IRF Lucia reporter activity,RAW-Dual [3]; agonist: LPS (TLR4) 0.1 ug/mL,1.2
O=C1c2ccccc2-c2n[nH]c3cccc1c23,IRF Lucia reporter activity,RAW-Dual [2]; [5],0.18
O=C1c2ccccc2-c2n[nH]c3cccc1c23 (library stock concentration (final ~1000-fold dilution): 10 mM),IRF Lucia reporter activity,RAW-Dual [1]; [4],0.0638
same,IRF Lucia reporter activity,RAW-Dual [1]; agonist: LPS (TLR4) 0.1 ug/mL,0.205
CC(C)CC(NC(=O)CNC(=O)c1cc(Cl)ccc1Cl)B(O)O (centres undefined) (library stock concentration (final ~1000-fold dilution): 10 mM),IRF Lucia reporter activity,RAW-Dual [1]; [4],1
same,IRF Lucia reporter activity,RAW-Dual [1]; agonist: LPS (TLR4) 0.1 ug/mL,1.16
CC(C)CC(NC(=O)CNC(=O)c1cc(Cl)ccc1Cl)B(O)O (centres undefined),IRF Lucia reporter activity,RAW-Dual [2]; [5],1.08
CNC(=O)c1ccc(N2C(=S)N(c3cnc(C#N)c(C(F)(F)F)c3)C(=O)C23CCC3)cc1F (library stock concentration (final ~1000-fold dilution): 10 mM),IRF Lucia reporter activity,RAW-Dual [1]; [4],1.1
same,IRF Lucia reporter activity,RAW-Dual [1]; agonist: LPS (TLR4) 0.1 ug/mL,1.04
CNC(=O)c1ccc(N2C(=S)N(c3cnc(C#N)c(C(F)(F)F)c3)C(=O)C23CCC3)cc1F,IRF Lucia reporter activity,RAW-Dual [2]; [5],1.17
